The supplement of paper PMC8728848
The list shows a part of the results.

Experiments:
Assay in all cases: glycan array binding signal (z-score within array); higher = stronger binding
Settings in all cases: glycan notation: IUPAC condensed, linker removed
[1] = target: Gal3S(b1-3)[Fuc(a1-4)]GlcNAc
Method in brief: (§1)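 Glycan array data came from 3228 arrays in the Consortium for Functional Glycomics database, and only arrays with an available protein sequence were kept. Glycan names were put into IUPAC-condensed notation, and columns mapping to the same glycan were averaged. The binding signal is a within-array Z-score, averaged across arrays of one protein sequence run at different concentrations or buffers and across linkers. A negative Z-score can be read as non-binding.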

Gal3S(b1-4)Glc = target: Gal3S(b1-4)Glc
Method in brief: as §1

Gal3S(b1-4)Glc6S = target: Gal3S(b1-4)Glc6S
Method in brief: as §1

Gal3S(b1-4)GlcNAc = target: Gal3S(b1-4)GlcNAc
Method in brief: as §1

[2] = target: Gal3S(b1-4)[Fuc(a1-3)]Glc6S
Method in brief: as §1

[3] = target: Gal3S(b1-4)[Fuc(a1-3)]GlcNAc
Method in brief: as §1

[4] = target: Gal3S(b1-4)[Fuc(a1-3)]GlcNAc6S
Method in brief: as §1

Gal3S4S(b1-4)GlcNAc = target: Gal3S4S(b1-4)GlcNAc
Method in brief: as §1

Gal3S6S(b1-4)GlcNAc = target: Gal3S6S(b1-4)GlcNAc
Method in brief: as §1

Gal3S6S(b1-4)GlcNAc6S = target: Gal3S6S(b1-4)GlcNAc6S
Method in brief: as §1

Gal4S(b1-4)GlcNAc = target: Gal4S(b1-4)GlcNAc
Method in brief: as §1

Gal4S6S(b1-4)GlcNAc = target: Gal4S6S(b1-4)GlcNAc
Method in brief: as §1

Gal6P(b1-4)GlcNAc = target: Gal6P(b1-4)GlcNAc
Method in brief: as §1

Gal6S(b1-3)GlcNAc = target: Gal6S(b1-3)GlcNAc
Method in brief: as §1

Gal6S(b1-3)GlcNAc6S = target: Gal6S(b1-3)GlcNAc6S
Method in brief: as §1

Gal6S(b1-4)Glc = target: Gal6S(b1-4)Glc
Method in brief: as §1

Gal6S(b1-4)Glc6S = target: Gal6S(b1-4)Glc6S
Method in brief: as §1

Gal6S(b1-4)GlcNAc = target: Gal6S(b1-4)GlcNAc
Method in brief: as §1

Gal6S(b1-4)GlcNAc6S = target: Gal6S(b1-4)GlcNAc6S
Method in brief: as §1

GalNAc(a1-3)Gal = target: GalNAc(a1-3)Gal
Method in brief: as §1

GalNAc(a1-3)GalNAc = target: GalNAc(a1-3)GalNAc
Method in brief: as §1

[5] = target: GalNAc(a1-3)GalNAc(b1-3)Gal(a1-4)Gal(b1-4)Glc
Method in brief: as §1

[6] = target: GalNAc(a1-3)GalNAc(b1-3)Gal(a1-4)Gal(b1-4)GlcNAc
Method in brief: as §1

GalNAc(b1-3)Gal = target: GalNAc(b1-3)Gal
Method in brief: as §1

[7] = target: GalNAc(b1-3)Gal(a1-4)Gal(b1-4)GlcNAc
Method in brief: as §1

[8] = target: GalNAc(b1-3)Gal(a1-4)Gal(b1-4)GlcNAc(b1-3)Gal(b1-4)Glc
Method in brief: as §1

[9] = target: GalNAc(b1-3)Gal(a1-6)Gal(b1-4)Glc
Method in brief: as §1

GalNAc(b1-3)GalNAc = target: GalNAc(b1-3)GalNAc
Method in brief: as §1

GalNAc(b1-3)GlcNAc = target: GalNAc(b1-3)GlcNAc
Method in brief: as §1

GalNAc(b1-4)Gal(b1-4)Glc = target: GalNAc(b1-4)Gal(b1-4)Glc
Method in brief: as §1

GalNAc(b1-4)GlcNAc = target: GalNAc(b1-4)GlcNAc
Method in brief: as §1

[10] = target: GalNAc(b1-4)GlcNAc(b1-2)Man
Method in brief: as §1

[11] = target: GalNAc(b1-4)GlcNAc(b1-2)Man(a1-3)[GalNAc(b1-4)GlcNAc(b1-2)Man(a1-6)]Man(b1-4)GlcNAc(b1-4)GlcNAc
Method in brief: as §1

[12] = target: GalNAc(b1-4)GlcNAc(b1-3)GalNAc(b1-4)GlcNAc
Method in brief: as §1

GalNAc(b1-4)GlcNAc6S = target: GalNAc(b1-4)GlcNAc6S
Method in brief: as §1

GalNAc(b1-6)GalNAc = target: GalNAc(b1-6)GalNAc
Method in brief: as §1

GalNAc3S(b1-4)GlcNAc = target: GalNAc3S(b1-4)GlcNAc
Method in brief: as §1

GalNAc3S(b1-4)GlcNAc3S = target: GalNAc3S(b1-4)GlcNAc3S
Method in brief: as §1

[13] = target: GalNAc3S(b1-4)[Fuc(a1-3)]GlcNAc
Method in brief: as §1

GalNAc4S6S(b1-4)GlcNAc = target: GalNAc4S6S(b1-4)GlcNAc
Method in brief: as §1

GalNAc6S(b1-4)GlcNAc = target: GalNAc6S(b1-4)GlcNAc
Method in brief: as §1

Glc(a1-4)Glc = target: Glc(a1-4)Glc
Method in brief: as §1

[14] = target: Glc(a1-4)Glc(a1-4)Glc(a1-4)Glc
Method in brief: as §1

Glc(a1-6)Glc(a1-6)Glc = target: Glc(a1-6)Glc(a1-6)Glc
Method in brief: as §1

[15] = target: Glc(a1-6)Glc(a1-6)Glc(a1-6)Glc
Method in brief: as §1

B1: Dectin2 (Homo sapiens), Q6EIG7 (protein)
chain: MMQEQQPQSTEKRGWLSLRLWSVAGISIALLSACFIVSCVVTYHFTYGETGKRLSELHSYHSSLTCFSEGTKVPAWGCCPASWKSFGSSCYFISSEEKVWSKSEQNCVEMGAHLVVFNTEAEQNFIVQQLNESFSYFLGLSDPQGNNNWQWIDKTPYEKNVRFWHLGEPNHSAEQCASIVFWKPTGWGWNDVICETRRNSICEMNKIYL
[1]
  glycan array binding signal (z-score): -0.072
Gal3S(b1-4)Glc
  glycan array binding signal (z-score): -0.104
Gal3S(b1-4)Glc6S
  glycan array binding signal (z-score): -0.135
Gal3S(b1-4)GlcNAc
  glycan array binding signal (z-score): -0.121
[2]
  glycan array binding signal (z-score): -0.029
[3]
  glycan array binding signal (z-score): -0.172
[4]
  glycan array binding signal (z-score): -0.137
Gal3S4S(b1-4)GlcNAc
  glycan array binding signal (z-score): -0.17
Gal3S6S(b1-4)GlcNAc
  glycan array binding signal (z-score): -0.156
Gal3S6S(b1-4)GlcNAc6S
  glycan array binding signal (z-score): -0.153
Gal4S(b1-4)GlcNAc
  glycan array binding signal (z-score): -0.145
Gal4S6S(b1-4)GlcNAc
  glycan array binding signal (z-score): -0.186
Gal6P(b1-4)GlcNAc
  glycan array binding signal (z-score): -0.199
Gal6S(b1-3)GlcNAc
  glycan array binding signal (z-score): -0.194
Gal6S(b1-3)GlcNAc6S
  glycan array binding signal (z-score): -0.141
Gal6S(b1-4)Glc
  glycan array binding signal (z-score): -0.141
Gal6S(b1-4)Glc6S
  glycan array binding signal (z-score): -0.114
Gal6S(b1-4)GlcNAc
  glycan array binding signal (z-score): -0.192
Gal6S(b1-4)GlcNAc6S
  glycan array binding signal (z-score): -0.157
GalNAc(a1-3)Gal
  glycan array binding signal (z-score): -0.162
GalNAc(a1-3)GalNAc
  glycan array binding signal (z-score): -0.156
[5]
  glycan array binding signal (z-score): -0.213
[6]
  glycan array binding signal (z-score): -0.202
GalNAc(b1-3)Gal
  glycan array binding signal (z-score): -0.117
[7]
  glycan array binding signal (z-score): -0.131
[8]
  glycan array binding signal (z-score): -0.193
[9]
  glycan array binding signal (z-score): -0.176
GalNAc(b1-3)GalNAc
  glycan array binding signal (z-score): -0.17
GalNAc(b1-3)GlcNAc
  glycan array binding signal (z-score): -0.18
GalNAc(b1-4)Gal(b1-4)Glc
  glycan array binding signal (z-score): -0.142
GalNAc(b1-4)GlcNAc
  glycan array binding signal (z-score): -0.143
[10]
  glycan array binding signal (z-score): -0.17
[11]
  glycan array binding signal (z-score): -0.102
[12]
  glycan array binding signal (z-score): 0.128
GalNAc(b1-4)GlcNAc6S
  glycan array binding signal (z-score): -0.198
GalNAc(b1-6)GalNAc
  glycan array binding signal (z-score): -0.189
GalNAc3S(b1-4)GlcNAc
  glycan array binding signal (z-score): -0.176
GalNAc3S(b1-4)GlcNAc3S
  glycan array binding signal (z-score): -0.173
[13]
  glycan array binding signal (z-score): -0.154
GalNAc4S6S(b1-4)GlcNAc
  glycan array binding signal (z-score): -0.182
GalNAc6S(b1-4)GlcNAc
  glycan array binding signal (z-score): -0.215
Glc(a1-4)Glc
  glycan array binding signal (z-score): -0.093
[14]
  glycan array binding signal (z-score): -0.164
Glc(a1-6)Glc(a1-6)Glc
  glycan array binding signal (z-score): -0.15
[15]
  glycan array binding signal (z-score): -0.131
